About 2,200 (0.71%) of roughly 310,000 compounds showed an effect of 50% or more. Effects have a minus sign here. This is one part of the list.

The target in this assay is human ether-à-go-go-related gene (hERG) potassium channel (human, UniProt Q12809). The experiment in a line: primary screen, population patch clamp on CHO cells stably expressing hERG.
human ether-à-go-go-related gene (hERG) potassium channel, sequence (Q12809 whole entry, looked up): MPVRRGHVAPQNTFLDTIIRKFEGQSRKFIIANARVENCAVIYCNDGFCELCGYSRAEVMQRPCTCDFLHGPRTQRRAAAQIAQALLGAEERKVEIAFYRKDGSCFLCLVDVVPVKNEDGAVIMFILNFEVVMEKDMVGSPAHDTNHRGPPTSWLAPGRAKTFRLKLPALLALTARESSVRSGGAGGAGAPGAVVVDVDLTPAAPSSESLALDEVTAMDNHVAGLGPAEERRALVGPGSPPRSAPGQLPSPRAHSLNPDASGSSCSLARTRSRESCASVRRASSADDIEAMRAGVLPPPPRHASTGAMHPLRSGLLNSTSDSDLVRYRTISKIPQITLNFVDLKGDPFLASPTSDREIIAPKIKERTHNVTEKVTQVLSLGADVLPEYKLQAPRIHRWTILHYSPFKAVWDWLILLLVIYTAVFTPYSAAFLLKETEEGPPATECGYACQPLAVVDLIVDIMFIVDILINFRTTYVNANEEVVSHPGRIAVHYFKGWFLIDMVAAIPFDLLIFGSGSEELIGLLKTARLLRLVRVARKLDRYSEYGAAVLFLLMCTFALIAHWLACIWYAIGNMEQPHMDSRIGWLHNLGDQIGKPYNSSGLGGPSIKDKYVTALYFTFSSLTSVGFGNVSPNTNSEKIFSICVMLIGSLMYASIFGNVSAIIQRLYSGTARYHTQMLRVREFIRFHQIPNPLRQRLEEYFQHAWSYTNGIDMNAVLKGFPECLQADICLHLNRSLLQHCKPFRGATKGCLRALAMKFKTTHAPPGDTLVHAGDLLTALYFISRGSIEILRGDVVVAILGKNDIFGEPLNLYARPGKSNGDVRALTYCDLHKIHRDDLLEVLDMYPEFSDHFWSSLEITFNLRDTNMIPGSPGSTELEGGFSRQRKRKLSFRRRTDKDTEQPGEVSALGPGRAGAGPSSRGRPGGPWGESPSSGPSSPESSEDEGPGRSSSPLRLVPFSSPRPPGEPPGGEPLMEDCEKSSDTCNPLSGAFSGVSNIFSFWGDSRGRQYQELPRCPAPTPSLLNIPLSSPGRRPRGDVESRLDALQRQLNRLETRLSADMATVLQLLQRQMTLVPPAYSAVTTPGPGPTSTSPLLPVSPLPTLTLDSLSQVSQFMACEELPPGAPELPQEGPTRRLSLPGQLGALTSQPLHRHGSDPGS
For the molecule `O=C(COc1ccc(Br)cc1Cl)NNC(=O)c1ccccc1`, the “hERG current change (%, negative = inhibition) at 1uM” value stood at 3.92%.

With `O=S(=O)(NCCSCc1ccc(Cl)c(Cl)c1)c1ccc2c(c1)OCCO2`, the “hERG current change (%, negative = inhibition) at 1uM” value was 6.76%.

In the case of `Cc1ccc(C)c(NC(=O)CS(=O)(=O)c2c[nH]c3ccccc23)c1`, the “hERG current change (%, negative = inhibition) at 1uM” value amounted to 3.85%. Under `CCc1ccc(-n2c(SCC(=O)NC3CCS(=O)(=O)C3)nc3ccccc3c2=O)cc1` (stereo not drawn) stands 1.32%. Under `CC(=O)Nc1ccc(/C=N/N2CCCCC2)cc1` stands 13%; under `CC(c1ccccc1)C1NC(C(=O)O)CS1` (stereo not drawn), -5.59%; under `Cc1ccccc1-c1nnc(SCC(=O)NC2CCCC2)o1`, 6.85%. Turning to `COc1ccc(NC(=O)CN(C)C(=O)c2cccc(Oc3ccccc3)c2)cc1`, the “hERG current change (%, negative = inhibition) at 1uM” value was determined as 8.51%. Under `Cc1ccc(-c2nc3cnccn3c2Nc2ccc3c(c2)OCCO3)o1` stands -4.27%; under `COc1ccc2nnc(-c3ccccc3)n2n1`, -8.81%; under `Cc1ccc2nc(SCC(=O)Nc3ccc4c(c3)OCO4)nc(=O)n2c1`, 19.4%. Under `O=C(NCc1cccnc1)c1ccc(COc2ccccc2Cl)cc1` stands 12.5%; under `NCCCCCc1nnc(SCC(=O)c2ccc(Cl)cc2)o1`, -0.888%. Under `Cc1ccc(CNc2nc(N)c([N+](=O)[O-])c(NCCO)n2)cc1` stands -4.61%. On to `CC1CN(CCOCCOc2ccccc2-c2ccccc2)CC(C)O1.O=C(O)C(=O)O` (stereo not drawn), for which the “hERG current change (%, negative = inhibition) at 1uM” value is on record as 2.23%. Under `O=Cc1ccc(OC(=O)c2cccnc2)cc1` stands 9.38%; under `COC(=O)C1=C[C@@H](C(=O)OC)[C@@H]2C3=C(C(=O)C2(C)C)[C@H](C)n2c(=O)n(-c4ccccc4)c(=O)n2[C@@H]3C1`, 12.4%. Under `Cc1ccc(C)n1-c1ccc(C(=O)Nc2ccccc2F)cc1` stands 10.7%; under `CC(=O)c1cccc(N(C(=O)c2ccco2)C(C(=O)NC2CCCCC2)c2ccc(C)o2)c1` (stereo not drawn), -1.17%. Under `COc1ccc(C2=NOC(C(=O)Nc3ccc4c(c3)OCCO4)C2)cc1OC` (stereo not drawn) stands 12.4%. Regarding `COc1ccc(C(=O)Oc2ccc(/C=N/Nc3ccc(Cl)c(C(=O)O)c3)cc2OC)cc1`, the “hERG current change (%, negative = inhibition) at 1uM” value was determined as 14.7%. Under `Cc1ccccc1NC(=O)c1nn(C)c(C(=O)Nc2ccccc2C)c1[N+](=O)[O-]` stands 11.8%. For `Cc1nc2sc(C(c3ccccc3)N3CC(C)OC(C)C3)c(O)n2n1` (stereo not drawn), the “hERG current change (%, negative = inhibition) at 1uM” value came to 10.2%. On to `CCOc1ccc(S(=O)(=O)N/N=C(\C)c2ccc(Cl)c(Cl)c2Cl)cc1`, for which the “hERG current change (%, negative = inhibition) at 1uM” value worked out at 12.1%.

The record behind these values is article PMC4336329 (PLoS ONE, 2015).
